# Test results: PubChem BioAssay AID1347073 (National Center for Advancing Translational Sciences (NCATS), 2019)
# The campaign covered roughly 45,000 compounds. About 200 (0.44%) were called active. Not shown: some 7% with an inconclusive outcome. The call rests on the fitted dose curve; in most records, active means well fitted activation curve with a large enough effect; inconclusive means small, poorly fitted or top-dose-only effect; inactive means no such curve, though single readings can be large or run the other way. This is one part of the list.
# Experiment: qHTS of TDP-43 Inhibitors: NCGC Sytravon Library Screen; further: 0% is about no effect; nearly all actives have a fitted effect of over 55% in size
# Details: yeast TDP-43 toxicity rescue, BacTiter-Glo growth, 24 h; series mostly up to 46.1 µM; growth rescue (activation): at the top concentration
# In short: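 TDP-43-expressing yeast, pregrown in raffinose, seeded at OD600 0.02 in galactose medium with compound for 24 hr at 30 deg C. Growth read by BacTiter-Glo luminescence, so rescue of toxicity appears as activation.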
row,Structure (SMILES),growth rescue (activation)
1,O=C(Nc1ccc(F)cc1)Nc1ccc(N2CCCC2)c(S(=O)(=O)Nc2ccccc2Cl)c1,inactive: 8.63%
2,COc1ccccc1N(C)S(=O)(=O)c1ccc(C(=O)OCC(=O)c2c[nH]c3ccccc23)cc1,inactive: 15.7%
3,N#Cc1ccccc1S(=O)(=O)N1CCN(C(=O)Cc2n[nH]c(=O)c3ccccc23)CC1,inactive: 21.3%
4,CCOc1ccccc1N1CC(C(=O)NC2CCCCCC2)CC1=O (configuration not stated),inactive: -10.7%
5,CCc1ccccc1NC(=O)c1ccc(CN2CCC(Cc3ccccc3)CC2)cc1,inactive: 4.31%
6,CCOC(=O)c1cc2c(C)[nH]c(C)c2cc(C(=O)OCC)c1=O,inactive: -14.9%
7,CCOc1ccccc1NC(=S)N(Cc1cc2ccc(C)cc2[nH]c1=O)CC1CCCN1CC (configuration not stated),inactive: 7.1%
8,COc1ccccc1N(CC(=O)NCCSCc1ccccc1)S(=O)(=O)c1ccc(C)cc1,inactive: 5.57%
9,Cc1cccc(-n2c(N)cc(=O)nc2SCC(=O)Nc2nnc(C)s2)c1,inactive: 27.1%
10,Cc1cc(C)cc(OC(=O)C23CCC(C)(C(=O)O2)C3(C)C)c1 (configuration not stated),inactive: -6.39%
11,COCCCNC(=O)[C@H](CSCc1ccccc1)N1Cc2ccccc2C1=O,inactive: 22.5%
12,COc1ccc(C(=O)Cn2nnc(-c3ccccc3NC(=O)c3ccco3)n2)cc1,inactive: 28.5%
13,Nc1nc(NCCc2ccccc2)nc(NCCO)c1[N+](=O)[O-],inactive: 6.03%
14,Cc1cccc[n+]1CC(=O)c1ccc([N+](=O)[O-])cc1,inactive: 15.4%
15,Cc1cc(C)cc(OCC(=O)NCCc2nc3ccccc3[nH]2)c1,inactive: 13.3%
16,CC(=O)Nc1cccc(NC(=O)c2ccc(COc3ccccc3)cc2)c1,inactive: 28.9%
17,COc1cc(/C=C/C(=O)O)cc(S(=O)(=O)N2CCc3ccccc32)c1OC,inactive: 13%
18,CN(Cc1ccccc1)S(=O)(=O)c1ccc2c(c1)NC(=O)CC(=O)N2,inactive: 18.1%
19,CCOC(=O)C1(C)CCCCN1C(=O)c1ccco1 (configuration not stated),inactive: 14.7%
20,CCC(=O)Nc1cccc(NC(=O)c2ccccc2Br)c1,inactive: 13%
21,Cc1ccc(CSc2nnc(SCC(=O)N/N=C/c3ccc(C(=O)O)cc3)s2)cc1,inactive: -1.16%
22,Cc1ccccc1C(=O)Nc1ccccc1NC(=O)c1ccccc1C,inactive: -1.86%

row,Structure (SMILES),growth rescue (activation)
1,COc1ccc2c(c1)CC/C(=C/c1cc(OC)c(OC)c(OC)c1)C2=O,inactive: -3.48%
2,Cc1ccc(-c2cc(C(F)(F)F)n3nc(C(=O)N4CCN5CCCC5C4)cc3n2)cc1 (configuration not stated),inactive: -17.6%
3,CC1CCC2(CC1)NC(=O)N(CC(=O)Nc1cc(S(=O)(=O)N3CCCC3)ccc1Cl)C2=O (configuration not stated),inactive: -7.56%
4,CCS(=O)(=O)CCSc1nc2ccccc2s1,inactive: 13.3%
5,CC1CN(C2=NC(=O)/C(=C/c3ccncc3)S2)CC(C)O1 (configuration not stated),inactive: -2.97%
6,CCCNC(=S)Nc1cccc(C(F)(F)F)c1,inactive: -18.3%
7,CCc1cccc2c1NC1(CCCC1)CC2C (configuration not stated),inactive: -11.4%
8,Cc1ccc(Cl)cc1NC(=O)C1CCCCC1C(=O)O (configuration not stated),inactive: 4.8%
9,COc1ccc(-c2cc(C(=O)NC3CCCC3)no2)cc1,inactive: 29.7%
10,CC1=NN(C(=O)COc2ccccc2)C(O)(c2ccccc2)C1 (configuration not stated),inactive: 24.5%
11,Cc1cccc(C)c1NC(=O)NN=C1CCCCC1,inactive: 6.66%
12,COc1ccc(OCCSc2nc(N)cc(=O)[nH]2)cc1,inactive: -12.7%
13,CCC(=O)N1CCN(c2cc3c(cc2F)c(=O)c(C(=O)O)cn3CC)CC1,inactive: -7.42%
14,Cc1n[nH]c(=S)n1-c1ccccc1,inactive: -17.5%
15,COc1cc(/C=N/Nc2cccc(C)c2)ccc1OC(=O)c1cccs1,inactive: 9.3%
16,O=S(=O)(c1cnc(Cl)c(Cl)c1)N1CCN(c2ncccn2)CC1,inactive: 8.62%
17,CC1(C(=O)Nc2ccc3c(c2)OCO3)CCN1C(=O)Cc1cccs1 (configuration not stated),inactive: -8.49%
18,S=c1[nH]nc(C2CCCCC2)n1/N=C/C(Cl)=C\c1ccccc1,inactive: 17.5%
19,CC1=CN2C(=N)/C(=C/c3ccc(Sc4ccc(Cl)cc4)o3)C(=O)N=C2S1,inactive: 7.44%
20,COc1ccc(Cl)cc1C(=O)NNC(=O)c1nc2nc(C)cc(C)n2n1,inactive: 7.03%
21,COC(=O)c1ccccc1NC(=O)Cc1nc(-c2ccccc2)sc1-c1ccc(C)cc1,inactive: 6.76%
22,CC1CC(OC(=O)c2ccccc2C(=O)c2ccc(Cl)cc2)C(=O)O1 (configuration not stated),inactive: 18.1%

row,Structure (SMILES),growth rescue (activation)
1,CC1=NN(C(=O)CSCc2ccccc2)C(O)(c2ccc(Cl)cc2)C1 (configuration not stated),inactive: 2.92%
2,CC(C)C(NC(=O)C(C)N1C(=O)c2ccccc2C1=O)c1ccccc1 (configuration not stated),inactive: 6.73%
3,CN1Cc2c(N3CCOCC3)nc3sc(C#N)c(N)c3c2CC1(C)C,inactive: 1.16%
4,Cc1cc(=O)oc2cc(OCCCC[n+]3ccccc3)ccc12,inactive: -3.78%
5,CC(=O)c1cccc(NC(=O)c2cc(=O)[nH]c3ccc(S(=O)(=O)N4CCOCC4)cc23)c1,inactive: 9.75%
6,Cc1ccc(/C=N/NC(=O)CN2CCN(Cc3ccccc3Cl)CC2)o1,inactive: -4.47%
7,CN(C)S(=O)(=O)c1ccc(Cl)c(C(=O)Nc2nc3ccccc3[nH]2)c1,inactive: -0.912%
8,CCOc1ccc(CN(C)C(=O)CCN2C(=O)c3ccccc3C2=O)cc1OC,inactive: 9%
9,O=C(Nc1ccc(S(=O)(=O)N2CCCC2)cc1)c1ccc(F)cc1,inactive: 4.52%
10,Cc1cc(-c2n[nH]c(=S)n2/N=C/c2sccc2C)n[nH]1,inactive: 9.17%
11,O=C(NCc1ccco1)c1ccc(Cl)c(S(=O)(=O)Nc2ccccc2)c1,inactive: 10.1%
12,N=C(c1cccc([N+](=O)[O-])c1)N1CCCCC1,inactive: 0.021%
13,O=C(O)CC(NCc1ccco1)C(=O)OCCCl (configuration not stated),inactive: -10.1%
14,Cc1cccc(NC(=O)c2ccc(S(=O)(=O)N3CCCC3)cc2)c1C,inactive: -15.1%
15,CC(=O)Nc1ccc(S(=O)(=O)N2CCSc3ccccc32)cc1,inactive: 6.58%
16,O=C(O)c1cc2nccc(-c3ccc(F)cc3)n2n1,inactive: -1.65%
17,CCC(C)NC(=S)N1CCN(C(c2ccccc2)c2ccccc2)CC1 (configuration not stated),inactive: 1.5%
18,CCOC(=O)C1(CCc2ccccc2)CCN(Cc2ccc(OC)cc2)CC1,inactive: -16.5%
19,COc1cccc(-c2cnc(C(O)c3cc(C)c(OC)c(C)c3)[nH]2)c1 (configuration not stated),inactive: -6.03%
20,COc1ccc(CCNC(=O)Nc2nc(C(N)Cc3ccccc3)cs2)cc1OC (configuration not stated),inactive: 11.1%
21,CCc1ccc(C2c3[nH]c4ccccc4c3CCN2C(=O)c2ccc(=O)n(C)n2)cc1 (configuration not stated),inactive: 15.5%
22,COc1ccc2c(c1)-c1nc(/N=C/c3c(O)ccc4ccccc34)sc1CC2,inactive: 4.21%

row,Structure (SMILES),growth rescue (activation)
1,CCC(=O)N(Cc1cc(=O)[nH]c2ccccc12)c1ccccc1OC,inactive: -6.58%
2,N#Cc1nc(Cc2ccccc2)oc1N1CCCC1,inactive: 29.1%
3,O=C(CCCC(=O)N(CC(=O)NC1CCCC1)C1CCCC1)Nc1ccccn1,inactive: 7.18%
4,COc1cccc(CN(C(=O)c2ccco2)C(C(=O)NC2CCCC2)c2cccnc2)c1 (configuration not stated),inactive: 11.2%
5,CN(Cc1ccco1)C(=O)CN1C(=O)NC2(CCCC2)C1=O,inactive: 13.5%
6,O=C(O)CCN=CC1=C(O)CC(c2ccccc2)CC1=O (configuration not stated),inactive: -20.1%
7,CC(=O)Cc1nsc(Nc2ccc3c(c2)OCCO3)n1,inactive: -5.44%
8,O=C(/C=C/Nc1ccc(Cc2ccc(N/C=C/C(=O)C(F)(F)F)cc2)cc1)C(F)(F)F,inactive: 19.3%
9,CC1=NN(C(=O)CSCc2ccccc2)C(O)(c2ccc(F)cc2)C1 (configuration not stated),inactive: -3.55%
10,COc1cccc(C(=O)Nc2nnc(SCC(=O)NC3CC3)s2)c1,inactive: -0.498%
11,Cc1ccc(C(=O)OCC(=O)c2ccc[nH]2)s1,inactive: 19.8%
12,O=C(N/N=C/c1ccc(O)cc1O)NC12CC3CC(CC(C3)C1)C2,inactive: 17.3%
13,CNc1ccc(S(=O)(=O)NC)cc1[N+](=O)[O-],inactive: -7.34%
14,CCCCCc1c(C)[nH]c2nc3ccccc3n2c1=O,inactive: 1.36%
15,COC(=O)C1=C(C)NC(C)=C(C(=O)OC)C1c1ccc(OC(=O)c2ccco2)cc1,inactive: 9.08%
16,COc1cccc(-c2cnc(C(O)c3ccccc3)[nH]2)c1 (configuration not stated),inactive: -1.68%
17,COc1ccc(NC(=O)CCC(=O)c2cccs2)cc1S(=O)(=O)Nc1ccccc1Cl,inactive: 24%
18,Cc1ccc(S(=O)(=O)NC(CC(=O)O)c2ccc(F)cc2)cc1 (configuration not stated),inactive: 13.5%
19,CCOC(=O)C1CCCN(C(=O)c2ccc([N+](=O)[O-])cc2)C1 (configuration not stated),inactive: 8.21%
20,C=CCSc1nc2sc3c(c2c(=O)n1CC=C)CCc1ccccc1-3,inactive: -3.23%
21,CC(C)CNC(=O)CN(c1ccccc1)S(=O)(=O)c1ccccc1[N+](=O)[O-],inactive: 15.3%
22,O=[N+]([O-])c1cc(C(F)(F)F)cc([N+](=O)[O-])c1N1CCN(S(=O)(=O)c2ccccc2)CC1,inactive: 18.2%

row,Structure (SMILES),growth rescue (activation)
1,Cc1ccc2cc(C#N)c(N3CCCN(C(=S)NCCCN(C)C)CC3)nc2c1,inactive: 1.9%
2,O=C(CCS(=O)(=O)c1cccs1)Nc1ccc(C(=O)NC2CCCC2)cc1,inactive: -5.98%
3,CCOc1ccc(NC(=O)C2C(C(=O)O)C3(Cl)C(Cl)=C(Cl)C2(Cl)C3(Cl)Cl)cc1 (configuration not stated),inactive: 12.6%
4,Cc1cc(C(=O)COC(=O)c2nn(C)c(=O)c3ccccc23)c(C)n1C,inactive: -5.62%
5,COc1cc(NC(=O)c2ccccc2)ccc1NC(=O)c1cc2ccccc2o1,inactive: -0.433%
6,NC(=O)C1CCCN(C(=O)CCC(=O)c2cccs2)C1 (configuration not stated),inactive: 21.7%
7,COc1ccc(CNC(=O)C(c2ccc(C)o2)N(C(=O)c2snc(C(N)=O)c2N)c2ccccc2OC)cc1 (configuration not stated),inactive: 8.82%
8,Cc1nn(C)c(C(=O)NNC(=O)Nc2cccc(C(F)(F)F)c2)c1Cl,inactive: -0.363%
9,CC(C)(C)c1ccc(CC(=O)N2CCC2(C)C(=O)Nc2ccc3[nH]ncc3c2)cc1 (configuration not stated),inactive: 9.12%
10,COc1ccc(C(C)=O)cc1CN(c1ccccc1OC)S(=O)(=O)c1cccs1,inactive: 13.5%
11,CCn1c(SCC(=O)O)nnc1-c1ccccc1OC,inactive: 10.5%
12,CCN(C(=O)CSc1nnc(C)n1-c1ccccc1)C1CCS(=O)(=O)C1 (configuration not stated),inactive: -4.67%
13,COc1ccc(C(NC(=O)C2CCN(CCc3ccccc3)CC2)c2ccccn2)cc1 (configuration not stated),inactive: 1.7%
14,COc1ccc2cnnc(SCC(=O)Nc3ccc(C(=O)O)cc3)c2c1OC,inactive: 6.9%
15,CNc1snc(C)c1C(=O)OCC(=O)Nc1ccc(C)cc1F,inactive: 9.72%
16,C/C=C(\C)CN1CCC(Oc2cccc(C(=O)NCc3ccccn3)c2)CC1,inactive: -6.44%
17,O=c1c(-c2ccc3c(c2)OCCO3)coc2cc(OC3OC(CO)C(O)C(O)C3O)ccc12 (configuration not stated),inactive: 15.1%
18,CCNC(=S)N1CCNC(=O)C1CC(=O)OC (configuration not stated),inactive: -0.596%
19,COc1ccc(CCNC(=O)COC(=O)COc2ccc(C#N)cc2)cc1,inactive: 3.55%
